In PubChem BioAssay (Tox21):
The shares of active, inactive and inconclusive entries below differ from those in the screen. For some assays here: A potency beside an inconclusive call is a rough fit, not a confirmed value. The source made the active and inactive calls. Unless noted, calls follow the shape of the dose curve; as a rule, active = well fitted curve in the direction sought with a large enough effect in the repeat runs; inconclusive = weak or mixed curves; inactive = no such curve, though single readings can be large; an effect the other way counts as inactive or inconclusive.

What was measured:
[1] = qHTS assay to identify aromatase inhibitors - cell viability counter screen (AID 743084); conditions: MCF-7 aro ERE viability, CellTiter-Fluor, 24 h; activity change, negative = cytotoxicity: at 70.3 µM (top of the series);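 also: cells stimulated with testosterone during compound exposure; nearly all actives have a fitted effect of over 55% in size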
[2] = qHTS assay to identify small molecule that activate the aryl hydrocarbon receptor (AhR) signaling pathway - cell viability counter screen (AID 743086); also: nearly all actives have a fitted effect of over 45% in size
Summary of the method: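 HepG2-AhR-luc (HG2L7.5c1) cells, 4000/well, treated 24 h at 37 C with compound; viability measured as CellTiter-Fluor fluorescence after 30 min in the same wells as the luciferase read.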

[3] = qHTS assay for small molecule agonists of the antioxidant response element (ARE) signaling pathway (AID 743202; active = well fitted activation curve with a large enough effect in the signal ratio in the repeat runs, not every such curve was filed as active; inconclusive = weak or mixed curves, or effect the other way; inactive = no such curve, though single readings can be large or run the other way; the % refers to the signal ratio); conditions: HepG2 ARE-bla reporter, beta-lactamase FRET, 16 h; activation: at 73.3 µM (top of the series) unless noted
Summary of the method: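 ARE-bla HepG2 cells (beta-lactamase reporter under the antioxidant response element), plated 5 hours, then exposed to compounds 16 hours at 37 C. LiveBLAzer B/G FRET substrate added for 2 hours at room temperature; fluorescence intensity read.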

[4] = qHTS assay for small molecule agonists of the antioxidant response element (ARE) signaling pathway - cell viability counter screen (AID 743203; calls by dose curve; also: nearly all actives have a fitted effect of over 55% in size); conditions: ARE-bla HepG2 viability, CellTiter-Glo luminescence, 16 h; viability change, negative = cytotoxic: at 73.3 µM (top of the series)
Summary of the method: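 Compounds in DMSO were pinned onto ARE-bla HepG2 cells plated 5 hrs earlier at 2,000 cells/well. Sixteen hours later at 37C/5% CO2, CellTiter-Glo was added and luminescence measured after 30 min at room temperature.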

[5] = qHTS assay for small molecule activators of the heat shock response signaling pathway (AID 743210; active = well fitted activation curve with a large enough effect in the signal ratio in the repeat runs, with a control signal flat, not every such curve was filed as active; inconclusive = weak or mixed curves; the % refers to the signal ratio; as to activation: % is scaled to controls: 0 for no effect and ±100 for the full control effect); conditions: HeLa HSE-bla reporter, beta-lactamase ratio, 5 h; activation: at 62.6 µM (top of the series)
Summary of the method: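 HSE-bla HeLa cells (beta-lactamase reporter under heat shock response elements), plated overnight, then exposed to compounds 5 h at 37 C; LiveBLAzer B/G FRET substrate added, 2.5 h at room temperature, fluorescence intensity read.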

[6] = qHTS assay to identify small molecule agonists of the peroxisome proliferator-activated receptor delta (PPARd) signaling pathway - cell viability counter screen (AID 743211); conditions: PPARd-bla HEK293H viability, CellTiter-Glo luminescence, 17 h; activity change, negative = cytotoxicity: at 62.6 µM (top of the series); also: nearly all actives have a fitted effect of over 55% in size
Summary of the method: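 PPARd-bla HEK293H cells (UAS-beta-lactamase reporter) were treated with compounds for 17 h at 37 C. Viability was then read in the same wells by CellTiter-Glo luminescence after 30 min at room temperature.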

[7] = qHTS assay to identify small molecule antagonists of the peroxisome proliferator-activated receptor delta (PPARd) signaling pathway - cell viability counter screen (AID 743213); conditions: PPARd-bla HEK293H viability, CellTiter-Glo luminescence, 17 h; viability change, negative = cytotoxic: at 62 µM (top of the series) unless noted; also: nearly all actives have a fitted effect of over 50% in size
Summary of the method: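 HEK293H PPARd UAS-bla cells, 5 h pre-incubation, compound + L165041 300 nM final, 17 h 37 C; B/G FRET substrate 2 h RT; then CellTiter-Glo 30 min RT, luminescence.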

[8] = molecular target: Bile acid receptor (Homo sapiens) (UniProt Q96RI1); test: qHTS assay to identify small molecule antagonists of the farnesoid-X-receptor (FXR) signaling pathway (AID 743217; active = well fitted inhibition curve with a large enough effect in the signal ratio in the repeat runs, not every such curve was filed as active; inconclusive = weak or mixed curves, or effect the other way; inactive = no such curve, though single readings can be large or run the other way; the % refers to the signal ratio; as to activity change, negative = inhibition: % is scaled to controls: 0 for no effect and ±100 for the full control effect); conditions: HEK293T FXR-UAS-bla, beta-lactamase ratio, CDCA-stimulated, 16 h; activity change, negative = inhibition: at 62.6 µM (top of the series) unless noted
Summary of the method: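 In this cell-based antagonist screen, inhibition of CDCA-driven (50 uM final) UAS-beta-lactamase expression in HEK 293T cells was measured by FRET fluorescence following 16 h compound exposure at 37 °C.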

[9] = qHTS assay to identify small molecule agonists of the farnesoid-X-receptor (FXR) signaling pathway - cell viability counter screen (AID 743218); conditions: FXR-bla HEK293T viability, CellTiter-Glo luminescence, 16 h; viability change, negative = cytotoxic: at 62.6 µM (top of the series) unless noted; also: nearly all actives have a fitted effect of over 45% in size
Summary of the method: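 After 16 h at 37 C with test compounds, FXR-bla HEK 293T cells were given LiveBLAzer B/G substrate for 2 h at RT and then CellTiter-Glo; luminescence was taken after 30 min.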

[10] = molecular target: Bile acid receptor (Homo sapiens) (UniProt Q96RI1); test: qHTS assay to identify small molecule agonists of the farnesoid-X-receptor (FXR) signaling pathway (AID 743220; active = well fitted activation curve with a large enough effect in the signal ratio in the repeat runs, not every such curve was filed as active; inconclusive = weak or mixed curves, or effect the other way; the % refers to the signal ratio); conditions: HEK293T FXR-UAS-bla, beta-lactamase FRET ratio, 16 h; activation: at 62.6 µM (top of the series) unless noted
Summary of the method: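 Beta-lactamase reporter under UAS control in GeneBLAzer FXR HEK 293T cells (5000/well) measured with LiveBLAzer FRET substrate after 2 h at room temperature. Compound exposure lasted 16 h at 37C.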

[11] = qHTS assay to identify small molecule antagonists of the farnesoid-X-receptor (FXR) signaling pathway - cell viability counter screen (AID 743221; active = well fitted cell-killing curve with a large enough effect in the repeat runs, not every such curve was filed as active; inconclusive = weak or mixed curves, or effect the other way; inactive = no such curve, though single readings can be large or run the other way; also: nearly all actives have a fitted effect of over 50% in size); conditions: FXR-bla HEK293T viability, CellTiter-Glo luminescence, 16 h; activity change, negative = cytotoxicity: at 62.6 µM (top of the series)
Summary of the method: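 FXR-UAS-bla HEK 293T cells were treated with test compounds plus chenodeoxycholic acid (50 uM final) for 16 h at 37 C. Cell viability in the same wells was then read as CellTiter-Glo luminescence after 30 min at room temperature.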

[12] = molecular target: Vitamin D3 receptor (Homo sapiens) (UniProt P11473); test: qHTS assay to identify small molecule agonists of the vitamin D receptor (VDR) signaling pathway (AID 743222; calls by dose curve); conditions: HEK293T VDR-UAS-bla, beta-lactamase FRET ratio, 16 h; activation: at 63.5 µM (top of the series) unless noted
Summary of the method: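 VDR-bla cells were seeded, left 4 h, treated with compounds in DMSO for 16 h, incubated 2 h at RT with B/G FRET substrate, and read for fluorescence.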

[13] = molecular target: Vitamin D3 receptor (Homo sapiens) (UniProt P11473); test: qHTS assay to identify small molecule antagonists of the vitamin D receptor (VDR) signaling pathway (AID 743223; active = well fitted inhibition curve with a large enough effect in the signal ratio in the repeat runs, not every such curve was filed as active; inconclusive = weak or mixed curves, or effect the other way; inactive = no such curve, though single readings can be large or run the other way; the % refers to the signal ratio; as to activity change, negative = inhibition: % is scaled to controls: 0 for no effect and ±100 for the full control effect); conditions: VDR-UAS-bla HEK293T, beta-lactamase FRET ratio, 16 h; activity change, negative = inhibition: at 61 µM (top of the series) unless noted
Summary of the method: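 VDR-bla cells were plated, incubated 4 h at 37C, then given compound and 1alpha,25-dihydroxyvitamin D3 (3 nM final). After 16 h at 37C, LiveBLAzer B/G FRET substrate was added for 2 h at room temperature and fluorescence read.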

[14] = molecular target: Peroxisome proliferator-activated receptor gamma (Homo sapiens) (UniProt P37231); test: qHTS assay to identify small molecule antagonists of the peroxisome proliferator-activated receptor gamma (PPARg) signaling pathway (AID 743191; calls by dose curve; also: nearly all actives have a fitted effect of over 30% in size); conditions: HEK293H PPARg-UAS-bla, beta-lactamase ratio, antagonist, 17 h; ratio activity, negative = inhibition: at 62.6 µM (top of the series) unless noted
Summary of the method: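 GeneBLAzer PPARg UAS-bla HEK293H cells, 5 h post-plating, exposed to compounds 17 h at 37C. LiveBLAzer B/G FRET substrate added for 1 h at room temperature; beta-lactamase reporter read by fluorescence intensity.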
Potency is read from the fitted curve at half-maximal effect; tags tell the direction and shape of the fitted curve or compound fluorescence and quenching.

UniProt Q96RI1, sequence (Q96RI1 whole entry, looked up): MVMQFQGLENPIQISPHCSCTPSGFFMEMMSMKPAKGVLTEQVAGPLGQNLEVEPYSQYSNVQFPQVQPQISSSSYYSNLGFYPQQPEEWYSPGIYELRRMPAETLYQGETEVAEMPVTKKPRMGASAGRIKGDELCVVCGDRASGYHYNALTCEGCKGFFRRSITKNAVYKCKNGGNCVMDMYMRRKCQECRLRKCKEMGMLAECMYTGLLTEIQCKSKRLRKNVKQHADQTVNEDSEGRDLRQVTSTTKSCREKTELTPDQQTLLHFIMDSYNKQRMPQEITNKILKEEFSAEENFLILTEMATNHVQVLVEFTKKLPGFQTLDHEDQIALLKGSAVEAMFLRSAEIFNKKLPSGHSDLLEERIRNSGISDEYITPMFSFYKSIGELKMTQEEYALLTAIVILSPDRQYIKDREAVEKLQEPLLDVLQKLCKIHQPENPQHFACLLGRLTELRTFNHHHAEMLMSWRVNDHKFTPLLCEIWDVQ
UniProt P11473, sequence (P11473 whole entry, looked up): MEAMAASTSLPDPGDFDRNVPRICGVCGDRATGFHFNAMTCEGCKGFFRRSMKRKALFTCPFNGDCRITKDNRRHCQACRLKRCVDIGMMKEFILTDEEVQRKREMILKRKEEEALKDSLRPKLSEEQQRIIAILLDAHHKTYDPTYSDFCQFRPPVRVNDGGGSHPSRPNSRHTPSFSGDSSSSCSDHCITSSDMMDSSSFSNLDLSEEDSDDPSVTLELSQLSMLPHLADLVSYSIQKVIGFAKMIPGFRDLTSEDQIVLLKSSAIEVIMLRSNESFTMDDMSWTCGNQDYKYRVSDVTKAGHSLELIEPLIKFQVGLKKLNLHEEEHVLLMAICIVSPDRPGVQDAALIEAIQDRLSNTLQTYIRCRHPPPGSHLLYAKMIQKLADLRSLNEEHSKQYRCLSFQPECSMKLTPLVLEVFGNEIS
UniProt P37231, sequence (P37231 whole entry, looked up): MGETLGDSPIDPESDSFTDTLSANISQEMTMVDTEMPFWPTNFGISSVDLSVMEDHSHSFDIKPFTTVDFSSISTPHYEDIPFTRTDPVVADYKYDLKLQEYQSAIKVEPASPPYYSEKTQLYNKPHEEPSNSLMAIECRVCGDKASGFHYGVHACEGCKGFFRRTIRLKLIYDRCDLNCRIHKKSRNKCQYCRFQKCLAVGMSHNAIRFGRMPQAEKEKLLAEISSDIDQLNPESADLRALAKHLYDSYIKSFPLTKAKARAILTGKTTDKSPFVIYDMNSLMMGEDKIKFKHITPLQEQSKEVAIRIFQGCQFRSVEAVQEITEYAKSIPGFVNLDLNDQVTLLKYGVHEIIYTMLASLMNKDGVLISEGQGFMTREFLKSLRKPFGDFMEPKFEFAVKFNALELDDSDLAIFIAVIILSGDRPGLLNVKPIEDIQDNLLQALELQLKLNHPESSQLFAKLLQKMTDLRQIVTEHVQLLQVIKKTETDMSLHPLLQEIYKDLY

COC(=O)C1=C(C)NC(C)=C(C(=O)OCCCN2CCC(c3ccccc3)(c3ccccc3)CC2)C1c1cccc([N+](=O)[O-])c1 (stereo not given)
inconclusive: Potency [1] 33.5 µM [cytotoxic, single point] | Potency [3] 33.5 µM [single point] | Potency [4] 33.5 µM [cytotoxic, single point] | Potency [5] 23.7 µM | Potency [8] 26.6 µM [rising, partial curve] | Potency [10] 33.5 µM | Potency [12] 29.8 µM [rising, single point] | Potency [13] 26.8 µM
active: Potency [2] 29.8 µM | Potency [6] 10.6 µM | Potency [7] 11.9 µM | Potency [9] 11.9 µM | Potency [11] 26.6 µM

CCCC(C(=O)OCCN(CC)CC)(c1ccccc1)c1ccccc1
inconclusive: Potency [1] 33.5 µM [cytotoxic, single point] | Potency [2] 23.7 µM [falling, partial curve, poor fit] | Potency [14] 29.8 µM [activator, partial curve, poor fit] | activation [5] 3.57% | Potency [7] 23.7 µM [cytotoxic, partial curve] | activity change, negative = inhibition [8] -23.4% | activity change, negative = inhibition [13] -30%
